Assay results reported in PubChem BioAssay (NCI).
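96-well plates; 48 h exposure; 5 concentrations. Endpoints by linear interpolation between flanking doses. Not reached: highest tested concentration assigned. Here, GI50 denotes the concentration required for 50% inhibition of growth. Definition used: TGI = concentration required for complete inhibition of growth.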

Each compound was assayed on NCI-H322M lung (assay: DTP human tumour cell line panel, 48 h).
`CCN(CC)c1ccc(/C=C/C(=O)c2cccc(NS(C)(=O)=O)c2)cc1` was tested, and the GI50 was greater than 100 µM and the TGI was greater than 100 µM.
With `CCOC(OCC)C(CCc1ccccc1)c1c(N)nc(N)[nH]c1=O` (centres undefined) the TGI was greater than 100 µM.
`C[C@@H]1CN(Cc2ccc(/C=C/c3n[nH]c4ccc5nc(-c6cn[nH]c6C(F)(F)F)c6c(c5c34)CCCC6)cc2)C[C@H](C)O1` showed a GI50 of 6.26 µM and a TGI of 19.4 µM.
In the case of `COC(=O)C1(NC(=O)C(N)CC(=O)O)C(C)C1C` (centres undefined), the TGI is reported as greater than 100 µM.
`CC(=O)O[C@H]1CC[C@@]2(C)C(=CC[C@@H]3[C@@H]2CC[C@]2(C)c4nc(N)c(C#N)cc4C[C@@H]32)C1` showed a TGI of 85.6 µM.
With `CC1(C)Oc2ccc(Cl)cc2C12CC2` the TGI was 55.1 µM.
With `O=C(Cc1ccc(/C=C/C(=O)c2ncc[nH]2)cc1)Nc1ccc(Br)cc1` the GI50 was 3.71 µM and the TGI was 13.8 µM.
`COc1ccc(CNc2nc3ccccc3nc2-c2cccs2)cc1OC` showed a TGI greater than 100 µM.
`COc1cc(C/C=C/c2ccccc2)c(OC)cc1O` was tested, and the TGI was greater than 100 µM.
`NCCCn1c2c(c3ccc([N+](=O)[O-])cc3c1=O)C(=O)c1cc3c(cc1-2)OCO3` showed a GI50 of 0.237 µM and a TGI of 2.73 µM.
In the case of `CCOC(=O)c1c(-c2[nH]c(C(=O)OCc3ccccc3)c(C)c2C(=O)OCC)[nH]c(C(=O)OCc2ccccc2)c1C`, the TGI is reported as greater than 100 µM.
`O=C1c2ccccc2C2(c3ccc(Cl)cc3)NCc3ccccc3CN12` (centres undefined) showed a TGI of 41.8 µM.
In the case of `CC12C=CC(C)(O1)C1C2c2ccccc2S1(=O)=O` (centres undefined), the GI50 is reported as greater than 100 µM and the TGI is reported as greater than 100 µM.
Compound `Cc1ccc([N+](=O)[O-])cc1S(=O)(=O)Nc1ccc(C2=NN(c3ccc([N+](=O)[O-])cc3[N+](=O)[O-])C(c3ccccc3O)C2)cc1` (centres undefined) has a TGI greater than 100 µM.
Work on `CCOC(=O)CNC(SC)=C(C#N)C#N` yielded a TGI greater than 100 µM.
With `CCCCNC(=S)/N=C/c1c(O)c2ccccc2oc1=O` the TGI was greater than 100 µM.
Work on `O=C1C=C(N2CC2)c2ccccc2C1=O` yielded a GI50 of 1.79 µM and a TGI of 3.22 µM.
In the case of `O=C1C2Cc3ccccc3CN2C(=O)N1CN1CCN(CN2C(=O)C3Cc4ccccc4CN3C2=O)CC1` (centres undefined), the TGI is reported as greater than 100 µM.
`Cc1cc(-c2ccccc2)c(C)n1Cc1ccc(Cl)cc1` showed a GI50 of 19.9 µM and a TGI greater than 100 µM.
In the case of `c1ccc(C(=NNc2nc3ccccc3[nH]2)c2ccccn2)nc1`, the TGI is reported as 1.95 µM.
Compound `FC1CCN(C2(c3cccs3)CCCCC2)CC1` has a TGI greater than 100 µM.
For `COCC(=O)[C@]1(O)Cc2c(O)c3c(c(O)c2[C@@H](OC2CC(N)C(O)C(C)O2)C1)C(=O)c1c(OC)cccc1C3=O` (some centres undefined), the TGI was 2.09 µM.
`CCC(=N\NC(N)=S)/C(C)=N/O` was tested, and the TGI was greater than 100 µM.
Work on `COC(=O)[C@]12CC[C@@H](C)[C@H](C)[C@@H]1C1=CC[C@@H]3[C@@]4(C)C(c5ncon5)=C[C@@](C)(CO)C4=CC[C@@]3(C)[C@]1(C)CC2` yielded a GI50 of 3.88 µM and a TGI of 14.8 µM.
Compound `OC(COc1ccc(Cl)cc1Cl)CN1CCCC1` (centres undefined) has a TGI greater than 100 µM.
Compound `Cn1c(=O)c(C(c2ccccc2)c2c(O)c3ccccc3n(C)c2=O)c(O)c2ccccc21` has a TGI greater than 100 µM.
`CC1SC2=NC3=C(c4ccccc4C3=O)C(c3ccc(Br)cc3)N2C1=O` (centres undefined) showed a TGI greater than 100 µM.
`COc1ccc2[nH]c(C(=O)N3CC(CCl)c4ccc([N+](=O)[O-])cc43)cc2c1` (centres undefined) showed a TGI greater than 100 µM.
`N/C(=N\Nc1nc2cc([N+](=O)[O-])ccc2o1)c1ccccn1` gave a TGI of 8.45 µM.
In the case of `O=C1CCC2=C(CCC2)N1CCc1ccc2c(c1)OCO2`, the TGI is reported as greater than 100 µM.
`c1ccc(-c2n(Cc3ccc4ccccc4n3)c3ccccc3[n+]2Cc2ccc3ccccc3n2)cc1` was tested, and the GI50 was 0.496 µM and the TGI was 3.05 µM.
In the case of `CC(NC(=O)C(C)C(=O)NCc1ccc(C(F)(F)F)cc1)C(N)=O` (centres undefined), the TGI is reported as greater than 100 µM.
`C[C@H](CC[C@@H](O)C(C)(C)O)[C@H]1CC[C@@]2(C)[C@@H]3CC=C4[C@@H](CC[C@H](OC5OC(CO)C(O)C(O)C5O)C4(C)C)[C@]3(C)C(=O)C[C@]12C` (some centres undefined) showed a TGI greater than 100 µM.
`NC(=O)Nc1ccc2ncnc(Nc3ccc(Cl)cc3)c2c1` was tested, and the GI50 was 0.594 µM and the TGI was greater than 25.8 µM.
`O=C(c1ccc(Cl)cc1)N(Cc1cccnc1)C(=S)N(Cc1cccnc1)C(=O)c1ccc(Cl)cc1` showed a TGI of 87.4 µM.
`O=C(c1ccc(Cl)cc1)N1N=C(c2ccc(Cl)cc2)CC1(O)c1cc(F)c(Cl)cc1Cl` (centres undefined) showed a TGI of 56.7 µM.
With `COc1cc(NCC(C#N)C#N)ccc1N=Nc1ccc([N+](=O)[O-])cc1` the TGI was greater than 100 µM.
`NC1=CC(=O)C(=O)c2cccnc21` gave a GI50 of 10.9 µM and a TGI of 22.8 µM.
Compound `C=C(C)CC1=C(C(=S)NCCO[Si](C)(C)C(C)(C)C)C(OCC)(OCC)C1=O` has a TGI of 41.8 µM.
`C=CCC1NCCC2=C1C(S(=O)(=O)c1ccc(C)cc1)c1ccccc12` (centres undefined) was tested, and the TGI was 25.5 µM.
With `OCCc1cnco1` the TGI was greater than 100 µM.
Compound `CC1=C(C(=O)Nc2ccccc2C)C(c2ccc(N(C)C)cc2)C(C(=O)Nc2ccccc2C)=C(C)N1` has a TGI greater than 100 µM.
`O=C1Nc2ccccc2C12CC(c1ccccc1)=NN2` (centres undefined) showed a GI50 of 4.7 µM and a TGI greater than 100 µM.
`CC(C)OC(=O)c1ccc(CCC2=CC(=O)C(Br)=CC2=O)cc1` showed a TGI greater than 66.8 µM.
In the case of `CC(C)C(/C=C/c1ccccc1)=N\NC(=O)N/N=C(/C=C/c1ccccc1)C(C)C`, the TGI is reported as greater than 100 µM.
For `COc1ccc(S(=O)(=O)O)cc1NS(=O)(=O)c1ccc(C)cc1`, the TGI was greater than 100 µM.
Compound `COc1ccc(C(=O)Nc2ncc(Cc3ccc(F)cc3)s2)cc1` has a GI50 of 0.392 µM and a TGI greater than 100 µM.
`CSc1nc(Cl)c(Br)c(Nc2c[nH]c(=O)[nH]c2=O)n1` showed a TGI of 33.4 µM.
Compound `O=C1Nc2ccccc2NC1C1OC(c2ccccc2)=CC1=O` (centres undefined) has a TGI greater than 100 µM.
`CC(=O)NNC(=O)c1nn(-c2ccc(Cl)cc2)cc1OC(C)=O` showed a GI50 of 11.9 µM and a TGI greater than 100 µM.
